# Assay results: PubChem BioAssay AID1345083 (National Center for Advancing Translational Sciences (NCATS), 2018)
# About 6,200 (6.6%) of roughly 94,000 compounds were called active. The inconclusive results got no clear call from the source; some entries with a clear call stand among them for comparison. Calls come from the whole dose curve; as a rule, active = well fitted inhibition curve with a large enough effect; inconclusive = small, poorly fitted or top-dose-only effect; inactive = flat fitted curve, though single readings scatter. Potencies beside an inconclusive call are fits to weak or partial responses and may not hold up.
# Test: Cytotoxic Profiling in HEK 293 Cell Line of Diverse Libraries Using Quantitative High-Throughput Screening; note: nearly all actives have a fitted effect of over 60% in size
# Settings: HEK 293 viability, ATP luminescence (CellTiter-Glo), 48-72 h; activity change, negative = cytotoxicity: at 115 µM (top of the series) unless noted; series mostly up to 115 µM
# Outline: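 Viability of HEK 293 cells, plated at 250 cells/well, was judged by cellular ATP after compound treatment for 48 or 72 hr. Luminescence was imaged 10 min after CellTiter-Glo addition at room temperature.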
# % is set by controls: 0 for no effect and ±100 for the full control effect; potency is the fitted concentration of half-maximal effect; tags give direction and shape of the fitted curve.
Structure (SMILES),Potency,"activity change, negative = cytotoxicity"
Cn1ccc(NC(=O)C2(C)CCc3cnc(Nc4ccccc4)nc32)n1 (configuration not stated),active: 100 µM,–
Fc1ccc(Cc2nc3nccc(-c4ccccc4)n3n2)cc1,"inconclusive: 89.1 µM [inhibitor, single point]",–
Cc1ccccc1CC(=O)NC1CCN(c2cc(-c3ccccc3)[nH]n2)CC1,"inconclusive: 31.6 µM [inhibitor, partial curve, poor fit]",–
CSc1ccc(-c2ccccc2CN)cc1,"inconclusive: 100 µM [inhibitor, partial curve, poor fit]",–
COc1ccc(OC)c(S(=O)(=O)N2CCCCCCNC(=O)CC2c2ccccc2)c1 (configuration not stated),"inconclusive: 89.1 µM [inhibitor, single point]",–
O=C(CN1CCCc2nc(-c3ccccc3)ncc2C1=O)NCC1CC1,"inconclusive: 31.6 µM [inhibitor, partial curve, poor fit]",–
CN1C[C@H](NCc2cccc3c2OCO3)CCC[C@@H](C(=O)NCc2cc(F)cc(F)c2)CC1=O,–,inactive: -20.5%
O=C(c1ccc(F)cc1F)N1CCC2(CC1)N=C(c1ccc(Br)cc1)NO2,"inconclusive: 50.1 µM [inhibitor, partial curve, poor fit]",–
CCN1CCN(CCN2CC3(CCN(C(=O)c4ccc(C)nc4)CC3)OC2=O)CC1,–,inactive: -10.2%
Cc1ccc(N2CCN(C(=O)c3noc(-c4ccc(F)cc4)n3)CC2)c(C)c1,"inconclusive: 89.1 µM [inhibitor, single point]",–
CN(C)c1ccc(CN2Cc3[nH]cnc3C[C@H]2C(=O)N2CCC(Cc3ccccc3)CC2)cc1,"inconclusive: 56.2 µM [inhibitor, partial curve, poor fit]",–
Cc1ccc(CN2CC3(C2)NC(=O)c2ccccc2O3)cc1,"inconclusive: 79.4 µM [inhibitor, partial curve]",–
O=C(Nc1cnc(-c2ccc(C(F)(F)F)cc2)nc1)C1CCOC1 (configuration not stated),"inconclusive: 50.1 µM [inhibitor, partial curve, poor fit]",–
O=C1NC2(CN([S+](=O)([O-])c3ccsc3)C2)Oc2ccccc21,"inconclusive: 79.4 µM [inhibitor, partial curve, poor fit]",–
O=C(c1ccc2ccccc2n1)N1CCC(n2c(=O)[nH]c3ccccc32)CC1,"inconclusive: 79.4 µM [inhibitor, partial curve]",–
COc1ccc(CNC(=O)C[C@@H]2CCNC[C@@H]2Cc2cc(-c3ccc(C(C)(C)C)cc3)on2)cc1,"inconclusive: 17.8 µM [inhibitor, full curve, poor fit]",–
COc1ccccc1C(=O)N1CCc2c(c(-c3nncn3Cc3ccccc3)nn2C)C1,–,inactive: -21.4%
